The other results are listed elsewhere or left out. At the low end of the ranking the order means little.
Biological target: T1, GST-Rok-C97-191 (UniProt O34857)
T1 sequence: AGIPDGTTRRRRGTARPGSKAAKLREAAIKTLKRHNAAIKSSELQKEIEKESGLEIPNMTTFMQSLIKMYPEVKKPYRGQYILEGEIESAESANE
Assay: protein binding microarray;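 further: rank score from −0.5 (least bound) to 0.5 (best bound)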
Conditions: Rok is a gene silencer of Bacillus subtilis; high values mean tight binding; most listed sequences are background and not binding sites; double strand, one strand shown

Row | Sequence | binding signal [E-score]
1 | GTGCACTA | -0.0717
2 | GTGACAGA | -0.384
3 | CTGGAGGC | -0.111
4 | CATAAACA | -0.0659
5 | AAATCTCA | 0.0952
6 | ATATACTA | 0.436
7 | GAATATTA | 0.2
8 | AAAAGGCT | -0.129
9 | CTTGACGC | -0.0839
10 | AGGCCAAG | -0.176
11 | CCGAGGAA | -0.164
12 | CCTGACTC | -0.324
13 | ATGTCCGG | 0.202
14 | GTGCCCGA | -0.0978
15 | CAGGGCCG | -0.287
16 | AGCATAAA | 0.179
17 | CCTGAATC | -0.0702
18 | GAGGTCTA | 0.0111
19 | ACCTGGAA | 0.0976
20 | AGTCAAAT | -0.0556
21 | ATTGTGTG | 0.0693
22 | GAAATAAA | 0.176
23 | ATGCTACA | 0.256
24 | ATAGCTGC | 0.0753
25 | CAATAGAC | -0.104

Row | Sequence | binding signal [E-score]
26 | GCTCTACC | 0.0141
27 | ACATGTGG | 0.0717
28 | TAAGCTAA | 0.101
29 | CGTGGCAG | -0.258
30 | GGTCGTAC | 0.0516
31 | TAGTGAGA | 0.103
32 | ATCTTAAA | 0.164
33 | ATTGTGGA | -0.0175
34 | CAACACCC | -0.102
35 | ATTAAAAA | 0.0424
36 | GAAGCTCC | -0.178
37 | ATCTGGTC | 0.0789
38 | ACGGTCTG | -0.0561
39 | CTACGTTC | 0.0573
40 | GATGCGAA | -0.0687
41 | AAAAGGAC | -0.208
42 | CGACGTAA | 0.109
43 | AACGTCTT | -0.219
44 | GTACTAGA | 0.221
45 | CATCGCGG | -0.205
46 | CGTAGCGA | 0.052
47 | TATTCTCA | 0.136
48 | AACGCCGG | -0.211
49 | CTCAGATA | -0.0638
50 | ATAGTCGC | -0.0126

Row | Sequence | binding signal [E-score]
51 | GCGGGGGA | -0.179
52 | TCGGTTCA | -0.175
53 | CTATAGAC | 0.0974
54 | AGGTAATG | 0.113
55 | GGGTGCAA | 0.0496
56 | CTAGTCTC | -0.00792
57 | CCACGCAC | -0.103
58 | ACAACAAT | 0.217
59 | GCACGACC | -0.0572
60 | ACCATACC | 0.0865
61 | ATACGAGC | 0.0328
62 | ACTTACAG | -0.0858
63 | CTGCATCA | -0.145
64 | GATTCTAC | 0.406
65 | GACTGTCA | -0.067
66 | GCGGGCCC | -0.284
67 | TCTACCCA | 0.234
68 | ACTATCTC | 0.263
69 | ATTGGACC | -0.272
70 | GGAGTGAC | -0.282
71 | AACATACG | 0.0602
72 | CAACCGTA | 0.0759
73 | CCCTTGAG | -0.0319
74 | ATCCGCGG | -0.117
75 | AGCTATTA | 0.315

Row | Sequence | binding signal [E-score]
76 | GCATTGCA | -0.0382
77 | AAAATAAA | 0.154
78 | CCTTAAGC | -0.126
79 | GCCCTGAA | -0.131
80 | GGACTAAC | 0.0504
81 | GCCAATCC | -0.27
82 | GATCAAGA | 0.0247
83 | CGTTAAGC | -0.157
84 | ATCATGAT | -0.00709
85 | GCCGGTAC | -0.168
86 | ATTCTGGG | -0.0988
87 | CTCTTCAG | -0.0311
88 | ACCTTGCT | -0.156
89 | CTTCGTTA | -0.0688
90 | AATATACA | 0.394
91 | GAGAACCA | 0.0926
92 | AGTCCACG | -0.283
93 | AGATCTAA | 0.112
94 | AGTCCGGG | -0.196
95 | CAACTGTA | 0.111
96 | ATGGTCCG | -0.132
97 | ATGTTCGG | -0.0897
98 | AGCTTCGG | -0.168
99 | TCACGGGA | -0.138
100 | ACCGACCA | -0.0187

Row | Sequence | binding signal [E-score]
101 | ATTTTAGC | 0.242
102 | CTCCAAGC | -0.235
103 | AAGTATCC | 0.0955
104 | AGCGTCAT | -0.157
105 | CAAGCTAC | 0.0991
106 | GTGAGAGA | -0.15
107 | AACATTTG | 0.0606
108 | CGTGACTC | -0.263
109 | GACCCAAC | -0.142
110 | GCTGGAGA | -0.0975
111 | GAGTCATA | 0.0358
112 | AAACCAGA | 0.00552
113 | ATGACGTC | 0.114
114 | GATTCCGC | -0.235
115 | AGTCAAAA | 0.0923
116 | ACCCACCT | -0.198
117 | AAGCCTAT | 0.213
118 | CATCGGCC | -0.226
119 | ACACATGG | 0.126
120 | ACTCCGGG | -0.119
121 | GGCCCCAA | -0.279
122 | AGAAGTAT | 0.292
123 | AACCAAAA | 0.0375
124 | ACAAAGCG | 0.0314
125 | TCGGGCAA | -0.0458

Row | Sequence | binding signal [E-score]
126 | ATACCGCG | 0.0536
127 | ACTTTGTC | -0.075
128 | CTATACGA | 0.00609
129 | CACCAGTC | -0.25
130 | CCCGCCCA | -0.0203
131 | CCGACCAG | -0.107
132 | CATCATTC | 0.0109
133 | AGCTGTAC | 0.0313
134 | GACTGTAA | -0.00114
135 | GACAAACC | 0.0322
136 | AGCCAATG | -0.162
137 | TGATACCA | 0.171
138 | CGATGGTC | -0.198
139 | CAGAGGGC | -0.25
140 | GTGCGCAC | 0.0744
141 | AACGACGT | 0.0826
142 | GCTTTGAA | -0.0522
143 | ATCGCCTC | -0.136
144 | GCATGAAC | -0.3
145 | AATTCTCT | 0.00617
146 | TATGGGGA | -0.072
147 | CCGCGGGA | -0.156
148 | AAGACCGC | -0.159
149 | ACGGTCCG | -0.237
150 | ATGCTTCC | -0.269

Row | Sequence | binding signal [E-score]
151 | AAAACTGA | -0.0171
152 | CTAAGGCC | -0.157
153 | CGTGTCTA | 0.148
154 | CGTCAGCA | -0.273
155 | GACCACAC | -0.0705
156 | ATAGATCC | 0.207
157 | AGAGTAAA | 0.113
158 | CGTTATAG | 0.109
159 | CTGTAAAC | 0.0537
160 | CCCGGATC | -0.177
161 | GAGCAGCC | -0.216
162 | GCTAAAAA | 0.121
163 | ATATAACC | 0.233
164 | AGCGATCC | -0.165
165 | CAAAGCTC | -0.152
166 | CAACCAGG | -0.166
167 | CAAATGTA | 0.269
168 | GGTACCAA | 0.245
169 | GTGGTTGA | 0.111
170 | CATTGCCC | -0.163
171 | GGGAGTAC | -0.213
172 | CTGCGAGA | 0.0174
173 | ACCGATAT | 0.312
174 | AGTGGCAG | -0.208
175 | GAGGGTAA | -0.0477

Row | Sequence | binding signal [E-score]
176 | CCAGAAGA | -0.149
177 | CTCTCCCA | -0.153
178 | CAGGGGGG | -0.376
179 | CATGTTGC | -0.00843
180 | CAATATTC | 0.186
181 | CCACTAAA | 0.0373
182 | CAGACAGC | -0.123
183 | CTTCACGC | -0.0928
184 | GTTTCCGA | 0.0766
185 | CCTTTCCA | -0.208
186 | AAGACTCA | -0.19
187 | AGGTGATA | 0.195
188 | CCAGTTAC | 0.263
189 | AACCAGGA | -0.147
190 | CTGGGGCA | -0.313
191 | ATAGGAAG | 0.0169
192 | CAATTACC | 0.0477
193 | TTGGGAAA | 0.0122
194 | TATAAGGA | 0.102
195 | CGTGGTAG | 0.206
196 | GTGTATGA | 0.183
197 | GCGTGGCA | -0.303
198 | ATGCCCGG | -0.266
199 | ATGTCAAA | 0.0176
200 | AGGACCGC | -0.272

Row | Sequence | binding signal [E-score]
201 | CGTTCTAG | 0.22
202 | ATCCCAAT | -0.0813
203 | ACACTGCT | 0.127
204 | CGTACATC | 0.252
205 | ACTAGGCC | -0.168
206 | ATCGAGGC | -0.159
207 | CGGCTCTC | -0.276
208 | ACTCTTCG | 0.00879
209 | GAGGAGGC | -0.32
210 | GCCGACAA | -0.151
211 | CGATCATA | 0.249
212 | ACCAGAAC | -0.112
213 | AAAAGACT | 0.0531
214 | GGGCAACC | -0.335
215 | CTGACAAG | -0.143
216 | GCTGGGCC | -0.263
217 | GCGGGGCC | -0.387
218 | ACACACAC | 0.169
219 | TACCGCAA | 0.0594

Reference: PMC6212790
